# Measured values from paper PMC9911399, “Two distinct binding modes provide the RNA-binding protein RbFox with extraordinary sequence specificity”.
# Residue numbers refer to the chain shown, from its start. This is one part of the list.
# T1: RBFOX1 RRM RbFoxmut (Fox-RRM*) (Homo sapiens, UniProt Q9NWB1 109-208, R118D;E147R;N151S;E152T)
# T1 sequence: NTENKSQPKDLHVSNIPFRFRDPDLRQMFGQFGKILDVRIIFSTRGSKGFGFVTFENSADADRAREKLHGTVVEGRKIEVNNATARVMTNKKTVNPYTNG
# B1: CAGACCA (DNA:RNA)
# RNA: GGGAGACCGGAAUUCAGAUUGUCCCAGACCAUUAAAUCCCGUCGUAGCCACCA
# DNA 1: CAATCTGAATTCCGGTCTCCC
# DNA 2: TGGTGGCTACGACGGGATT
# B2: UAGUGGU (DNA:RNA)
# RNA: B1 RNA with C25U, A28U, C29G, C30G, A31U
# DNA 1: CAATCTGAATTCCGGTCTCCC
# DNA 2: TGGTGGCTACGACGGGATT
# B3: CGUGCGC (DNA:RNA)
# RNA: B1 RNA with A26G, G27U, A28G, C30G, A31C
# DNA 1: CAATCTGAATTCCGGTCTCCC
# DNA 2: TGGTGGCTACGACGGGATT
# B4: UUUCCCU (DNA:RNA)
# RNA: B1 RNA with C25U, A26U, G27U, A28C, A31U
# DNA 1: CAATCTGAATTCCGGTCTCCC
# DNA 2: TGGTGGCTACGACGGGATT
# B5: GACGCGA (DNA:RNA)
# RNA: B1 RNA with C25G, G27C, A28G, C30G
# DNA 1: CAATCTGAATTCCGGTCTCCC
# DNA 2: TGGTGGCTACGACGGGATT
# B6: CCGCCAA (DNA:RNA)
# RNA: B1 RNA with A26C, A28C, C30A
# DNA 1: CAATCTGAATTCCGGTCTCCC
# DNA 2: TGGTGGCTACGACGGGATT
# B7: UAUGUCA (DNA:RNA)
# RNA: B1 RNA with C25U, G27U, A28G, C29U
# DNA 1: CAATCTGAATTCCGGTCTCCC
# DNA 2: TGGTGGCTACGACGGGATT
# B8: AUGCCGC (DNA:RNA)
# RNA: B1 RNA with C25A, A26U, A28C, C30G, A31C
# DNA 1: CAATCTGAATTCCGGTCTCCC
# DNA 2: TGGTGGCTACGACGGGATT
# B9: CGCUUCA (DNA:RNA)
# RNA: B1 RNA with A26G, G27C, A28U, C29U
# DNA 1: CAATCTGAATTCCGGTCTCCC
# DNA 2: TGGTGGCTACGACGGGATT
# B10: CUCACAA (DNA:RNA)
# RNA: B1 RNA with A26U, G27C, C30A
# DNA 1: CAATCTGAATTCCGGTCTCCC
# DNA 2: TGGTGGCTACGACGGGATT
# B11: GCAAACC (DNA:RNA)
# RNA: B1 RNA with C25G, A26C, G27A, C29A, A31C
# DNA 1: CAATCTGAATTCCGGTCTCCC
# DNA 2: TGGTGGCTACGACGGGATT
# B12: ACGGCGC (DNA:RNA)
# RNA: B1 RNA with C25A, A26C, A28G, C30G, A31C
# DNA 1: CAATCTGAATTCCGGTCTCCC
# DNA 2: TGGTGGCTACGACGGGATT
# B13: UGUAAUC (DNA:RNA)
# RNA: B1 RNA with C25U, A26G, G27U, C29A, C30U, A31C
# DNA 1: CAATCTGAATTCCGGTCTCCC
# DNA 2: TGGTGGCTACGACGGGATT
# B14: AGACGAA (DNA:RNA)
# RNA: B1 RNA with C25A, A26G, G27A, A28C, C29G, C30A
# DNA 1: CAATCTGAATTCCGGTCTCCC
# DNA 2: TGGTGGCTACGACGGGATT
# B15: AGCAAAG (DNA:RNA)
# RNA: B1 RNA with C25A, A26G, G27C, C29A, C30A, A31G
# DNA 1: CAATCTGAATTCCGGTCTCCC
# DNA 2: TGGTGGCTACGACGGGATT
# B16: CCGGACA (DNA:RNA)
# RNA: B1 RNA with A26C, A28G, C29A
# DNA 1: CAATCTGAATTCCGGTCTCCC
# DNA 2: TGGTGGCTACGACGGGATT
# B17: UAUAAGU (DNA:RNA)
# RNA: B1 RNA with C25U, G27U, C29A, C30G, A31U
# DNA 1: CAATCTGAATTCCGGTCTCCC
# DNA 2: TGGTGGCTACGACGGGATT
# B18: UCAGAGA (DNA:RNA)
# RNA: B1 RNA with C25U, A26C, G27A, A28G, C29A, C30G
# DNA 1: CAATCTGAATTCCGGTCTCCC
# DNA 2: TGGTGGCTACGACGGGATT
# B19: AGAAGUG (DNA:RNA)
# RNA: B1 RNA with C25A, A26G, G27A, C29G, C30U, A31G
# DNA 1: CAATCTGAATTCCGGTCTCCC
# DNA 2: TGGTGGCTACGACGGGATT
# B20: GCCCCGA (DNA:RNA)
# RNA: B1 RNA with C25G, A26C, G27C, A28C, C30G
# DNA 1: CAATCTGAATTCCGGTCTCCC
# DNA 2: TGGTGGCTACGACGGGATT
# B21: AAUUUCU (DNA:RNA)
# RNA: B1 RNA with C25A, G27U, A28U, C29U, A31U
# DNA 1: CAATCTGAATTCCGGTCTCCC
# DNA 2: TGGTGGCTACGACGGGATT
# B22: UAUUGAU (DNA:RNA)
# RNA: B1 RNA with C25U, G27U, A28U, C29G, C30A, A31U
# DNA 1: CAATCTGAATTCCGGTCTCCC
# DNA 2: TGGTGGCTACGACGGGATT
# B23: CUAGUAC (DNA:RNA)
# RNA: B1 RNA with A26U, G27A, A28G, C29U, C30A, A31C
# DNA 1: CAATCTGAATTCCGGTCTCCC
# DNA 2: TGGTGGCTACGACGGGATT
# B24: UUGCAGU (DNA:RNA)
# RNA: B1 RNA with C25U, A26U, A28C, C29A, C30G, A31U
# DNA 1: CAATCTGAATTCCGGTCTCCC
# DNA 2: TGGTGGCTACGACGGGATT
# B25: UUUGCUA (DNA:RNA)
# RNA: B1 RNA with C25U, A26U, G27U, A28G, C30U
# DNA 1: CAATCTGAATTCCGGTCTCCC
# DNA 2: TGGTGGCTACGACGGGATT
# B26: UGGUUUC (DNA:RNA)
# RNA: B1 RNA with C25U, A26G, A28U, C29U, C30U, A31C
# DNA 1: CAATCTGAATTCCGGTCTCCC
# DNA 2: TGGTGGCTACGACGGGATT
# B27: CGACGAC (DNA:RNA)
# RNA: B1 RNA with A26G, G27A, A28C, C29G, C30A, A31C
# DNA 1: CAATCTGAATTCCGGTCTCCC
# DNA 2: TGGTGGCTACGACGGGATT
# B28: GGGGAUA (DNA:RNA)
# RNA: B1 RNA with C25G, A26G, A28G, C29A, C30U
# DNA 1: CAATCTGAATTCCGGTCTCCC
# DNA 2: TGGTGGCTACGACGGGATT
# B29: CAAUCCA (DNA:RNA)
# RNA: B1 RNA with G27A, A28U
# DNA 1: CAATCTGAATTCCGGTCTCCC
# DNA 2: TGGTGGCTACGACGGGATT
# B30: AACCGUU (DNA:RNA)
# RNA: B1 RNA with C25A, G27C, A28C, C29G, C30U, A31U
# DNA 1: CAATCTGAATTCCGGTCTCCC
# DNA 2: TGGTGGCTACGACGGGATT
# B31: GGAGCAA (DNA:RNA)
# RNA: B1 RNA with C25G, A26G, G27A, A28G, C30A
# DNA 1: CAATCTGAATTCCGGTCTCCC
# DNA 2: TGGTGGCTACGACGGGATT
# Biological target: T1, RBFOX1 RRM RbFoxmut (Fox-RRM*)
# Experiment: EMSA; HiTS-Eq, 1 nM pool, 10 min; buffer printed only for the single-RNA assays: 10 mM Tris pH 7.5, 150 mM NaCl, 3.4 mM EDTA, 0.001% NP-40, 30 C
# Settings: tags: His6 N-terminal (pET28a); label: 5' 32P
# In short: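 Relative association constants, normalised to the cognate motif, were derived by comparing read counts of each RNA species with those of the control reaction. The RNA sequenced was the free fraction, separated by 8% native PAGE after a 10 min equilibration in 50 µL of 1 nM 5′-radiolabelled RNA (7 randomized nucleotides) with increasing concentrations of purified wild-type or mutant RbFox RRM.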
row,Binder,binding signal
1,B1,0.0712 KA relative to UGCAUGU
2,B2,0.158 KA relative to UGCAUGU
3,B3,0.108 KA relative to UGCAUGU
4,B4,0.0509 KA relative to UGCAUGU
5,B5,0.0881 KA relative to UGCAUGU
6,B6,0.0996 KA relative to UGCAUGU
7,B7,0.0977 KA relative to UGCAUGU
8,B8,0.11 KA relative to UGCAUGU
9,B9,0.119 KA relative to UGCAUGU
10,B10,0.063 KA relative to UGCAUGU
11,B11,0.0564 KA relative to UGCAUGU
12,B12,0.119 KA relative to UGCAUGU
13,B13,0.157 KA relative to UGCAUGU
14,B14,0.0675 KA relative to UGCAUGU
15,B15,0.0925 KA relative to UGCAUGU
16,B16,0.0596 KA relative to UGCAUGU

row,Binder,binding signal
1,B17,0.0883 KA relative to UGCAUGU
2,B18,0.0855 KA relative to UGCAUGU
3,B19,0.142 KA relative to UGCAUGU
4,B20,0.0465 KA relative to UGCAUGU
5,B21,0.078 KA relative to UGCAUGU
6,B22,0.0608 KA relative to UGCAUGU
7,B23,0.12 KA relative to UGCAUGU
8,B24,0.0903 KA relative to UGCAUGU
9,B25,0.131 KA relative to UGCAUGU
10,B26,0.183 KA relative to UGCAUGU
11,B27,0.061 KA relative to UGCAUGU
12,B28,0.124 KA relative to UGCAUGU
13,B29,0.0631 KA relative to UGCAUGU
14,B30,0.102 KA relative to UGCAUGU
15,B31,0.0829 KA relative to UGCAUGU
